# Where a name gives a salt, the structure may show the parent alone. ± gives the standard deviation of the averaged measurements. Whole data set: some 2,000 compounds, median “relative cell viability vs DMSO, compound alone” near 1.1, cut for the lowest 2% near 0.29. The list shows a part of the results.
# Tested on: TE10
# Assay: relative cell viability vs DMSO, compound alone (fraction); TE10 is an esophageal squamous carcinoma line; higher = less cytotoxic
# Conditions: 2 µM; 48 h
# Protocol: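 TE10 ESCC cells (1,000/well, 384-well plates) were treated with Selleck bioactive library compounds at 2 uM alone for 48 h. Viability was read by CellTiter-Glo and expressed relative to DMSO wells. Two technical replicates (A, B).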
row,Structure (SMILES),relative cell viability
1,O=c1cc(-c2ccc(O)c(O)c2)oc2cc(O)cc(O)c12 [Luteolin],0.9823 ± 0.0049
2,O=C(Cc1ccc(-c2ccc(OCCN3CCOCC3)cc2)cn1)NCc1ccccc1,0.816 ± 0.05
3,Nc1ncn([C@H]2C[C@H](O)[C@@H](CO)O2)c(=O)n1 [Decitabine],1.339 ± 0.0036
4,CCCN(CCc1cccs1)[C@H]1CCc2c(O)cccc2C1 [Rotigotine],1.09 ± 0.023
5,Cc1cc(=O)n(-c2ccccc2)n1C [Antipyrine],1.07 ± 0.031
6,Clc1ccc(COC(Cn2ccnc2)c2ccc(Cl)cc2Cl)c(Cl)c1 (configuration not stated) [Miconazole Nitrate],1.01 ± 0.012
7,Clc1ccc(COC(Cn2ccnc2)c2ccc(Cl)cc2Cl)c(Cl)c1 (configuration not stated) [Miconazole],1.02 ± 0.037
8,CC(C)(C)C[C@@H]1N[C@@H](C(=O)N[C@H]2CC[C@H](O)CC2)[C@H](c2cccc(Cl)c2F)[C@]12C(=O)Nc1cc(Cl)ccc12,1.14 ± 0.045
9,O=c1c2ccccc2oc2ccccc12 [Xanthone],1.139 ± 0.01
10,CO[C@H]1O[C@@H]2O[C@@]3(C)CC[C@H]4[C@H](C)CC[C@@H]([C@H]1C)[C@@]24OO3 [Artemether],1.07 ± 0.02
11,Cn1ncc(Cl)c1-c1cc(C(=O)N[C@H](CN)Cc2cccc(F)c2)sc1Cl,0.757 ± 0.01
12,NC12CC3CC(CC(C3)C1)C2 [Amantadine HCl],1.149 ± 0.0057
13,CC1CCc2c(N3CCC(O)CC3)c(F)cc3c(=O)c(C(=O)O)cn1c23 (configuration not stated) [Nadifloxacin],0.991 ± 0.091
14,CO[C@@H](C(=O)N1Cc2[nH]nc(NC(=O)c3ccc(N4CCN(C)CC4)cc3)c2C1)c1ccccc1,1.07 ± 0.051
15,CN1CCN(C2=Nc3cc(Cl)ccc3Nc3ccccc32)CC1 [Clozapine],1.12 ± 0.049
16,Cc1c(Cc2ccc3ccccc3n2)c2cc(F)ccc2n1CC(=O)O,1.08 ± 0.054
17,C=CC(=O)N1CCC(Oc2cc3c(Nc4ccc(Cl)c(Cl)c4F)ncnc3cc2OC)CC1 [Poziotinib (HM781-36B)],1.12 ± 0.03
18,CCN(CCO)CCCOc1ccc2c(Nc3cc(CC(=O)Nc4cccc(F)c4)[nH]n3)ncnc2c1 [Barasertib (AZD1152-HQPA)],1.035 ± 0.0066
19,Cc1ccc(NC(=O)c2ccc(CN3CC[C@H](N(C)C)C3)c(C(F)(F)F)c2)cc1Nc1nccc(-c2cncnc2)n1 [Bafetinib (INNO-406)],1.151 ± 0.0038
20,CC1(C)CCC(CN2CCN(c3ccc(C(=O)NS(=O)(=O)c4ccc(NCC5CCOCC5)c([N+](=O)[O-])c4)c(Oc4cnc5[nH]ccc5c4)c3)CC2)=C(c2ccc(Cl)cc2)C1,1.09 ± 0.12
21,CC(C)(C)n1nc(-c2ccc(Cl)cc2)c2c(N)ncnc21,0.729 ± 0.1
22,CCCCCCCCCCC[C@@H](C[C@@H]1OC(=O)[C@H]1CCCCCC)OC(=O)[C@H](CC(C)C)NC=O [Orlistat],0.937 ± 0.048
23,CS(=O)(=O)c1cccc(CNc2nc(Nc3ccc4c(c3)CCC(=O)N4)ncc2C(F)(F)F)c1,0.958 ± 0.065
24,COc1cc2ncc(-c3ccccc3)nc2cc1OC [Tyrphostin AG 1296],0.999 ± 0.063
25,COC1C(O)CC(=O)OC(C)CC=CC=CC(OC2CCC(N(C)C)C(C)O2)C(C)CC(CC=O)C1OC1OC(C)C(OC2CC(C)(O)C(O)C(C)O2)C(N(C)C)C1O (configuration not stated) [Spiramycin],1.11 ± 0.04
26,CCC[C@H](Nc1nc(-c2ccc(NC(=O)NCC)c(OC)c2)ncc1C)c1cccnc1 [CYT997 (Lexibulin)],0.792 ± 0.025

row,Structure (SMILES),relative cell viability
1,O=NO [Sodium Nitrite],1.17 ± 0.056
2,COc1ccc(C(=O)Nc2sc3c(c2C(N)=O)CCCC3)cc1OC,1.06 ± 0.068
3,O=C(O)CCC(=O)Nc1ccc(Br)cn1 [Bikinin],1.05 ± 0.031
4,CC(C)(Oc1ccc(Cl)cc1)C(=O)O [Clofibric Acid],0.9951 ± 0.0068
5,COc1cc(Nc2ncc(F)c(Nc3ccc4c(n3)NC(=O)C(C)(C)O4)n2)cc(OC)c1OC,0.96 ± 0.015
6,COc1cc(Nc2ncc(F)c(Nc3ccc4c(n3)NC(=O)C(C)(C)O4)n2)cc(OC)c1OC [R406 (free base)],0.844 ± 0.051
7,CS(=O)(=O)CCNCc1ccc(-c2ccc3ncnc(Nc4ccc(OCc5cccc(F)c5)c(Cl)c4)c3c2)o1,0.998 ± 0.17
8,CS(=O)(=O)CCNCc1ccc(-c2ccc3ncnc(Nc4ccc(OCc5cccc(F)c5)c(Cl)c4)c3c2)o1 [Lapatinib],1.08 ± 0.019
9,C=CC(=O)Nc1cccc(Nc2nc(Nc3ccc(N4CCN(C(C)=O)CC4)cc3OC)ncc2C(F)(F)F)c1,0.986 ± 0.092
10,Nc1c(Br)cc(Br)cc1CN[C@H]1CC[C@H](O)CC1 [Ambroxol HCl],1.05 ± 0.029
11,Cn1ccnc1S [Methimazole],1.075 ± 0.0027
12,CC(C)(Sc1cc(C(C)(C)C)c(O)c(C(C)(C)C)c1)Sc1cc(C(C)(C)C)c(O)c(C(C)(C)C)c1 [Probucol],1.02 ± 0.0073
13,CN1CCC(=C2c3ccccc3CC(=O)c3sccc32)CC1 [Ketotifen Fumarate],1.07 ± 0.012
14,COc1ccccc1N1CCN(CC(O)COc2cccc3ccccc23)CC1 (configuration not stated) [Naftopidil DiHCl],1.13 ± 0.12
15,COc1ccccc1N1CCN(CC(O)COc2cccc3ccccc23)CC1 (configuration not stated) [Naftopidil],0.9388 ± 0.0088
16,O=C(O)CC[C@H]1CC[C@@](c2cc(F)ccc2F)(S(=O)(=O)c2ccc(Cl)cc2)CC1,0.965 ± 0.023
17,N#CC(c1ccc(Cl)cc1)c1c(Cl)cc(-n2ncc(=O)[nH]c2=O)cc1Cl (configuration not stated) [Diclazuril],0.869 ± 0.039
18,O=c1ccc2ccc(O)c(O)c2o1 [Daphnetin],1.1 ± 0.02
19,COc1cc(OC)c(C(=O)CCCN2CCCC2)c(OC)c1 [Buflomedil HCl],1.124 ± 0.0052
20,COc1ccc(CCNCc2ccc(OCc3ccc(Cl)nc3)c(OC)c2)cc1OC,1.083 ± 0.0095
21,CC(C)(C)C(=O)OCOP(=O)(COCCn1cnc2c(N)ncnc21)OCOC(=O)C(C)(C)C [Adefovir Dipivoxil],0.795 ± 0.078
22,CNCC[C@H](Oc1cccc2ccccc12)c1cccs1 [Duloxetine HCl],1.11 ± 0.054
23,C[C@@H](Oc1cc(-n2cnc3ccc(CN4CCN(C)CC4)cc32)sc1C(N)=O)c1ccccc1C(F)(F)F,0.877 ± 0.049
24,COc1ccccc1-c1cc(Nc2cccc(CS(N)(=O)=O)c2)ncn1,1.04 ± 0.014
25,CC1(COc2ccc3c(c2)ncn3-c2ccc3cccc(N4CCC(N)CC4)c3n2)COC1,1.1 ± 0.033
26,N#CC(=Cc1ccc(O)c(O)c1)C(=O)NCc1ccccc1 [AG-490 (Tyrphostin B42)],1.196 ± 0.001

# From the supplement of paper PMC10670038
